Assays:
[1] = target: T1, His-FLAG-NEPHRIN-extracellular domain (ECD) (Mus musculus, UniProt Q9QZS7 37-1078); test: SPR; Biacore T200; HGF immobilised on CM5 chip (10 mM acetate pH 5.0, ~2000 RU); increasing concentrations of FLAG-NEPH1-FL and FLAG-NEPHRIN-ECD flowed at 50 μl/min; HBS-P; regeneration 2 M NaCl; steady-state analysis; conditions: both partners purified
T1 sequence (looked up): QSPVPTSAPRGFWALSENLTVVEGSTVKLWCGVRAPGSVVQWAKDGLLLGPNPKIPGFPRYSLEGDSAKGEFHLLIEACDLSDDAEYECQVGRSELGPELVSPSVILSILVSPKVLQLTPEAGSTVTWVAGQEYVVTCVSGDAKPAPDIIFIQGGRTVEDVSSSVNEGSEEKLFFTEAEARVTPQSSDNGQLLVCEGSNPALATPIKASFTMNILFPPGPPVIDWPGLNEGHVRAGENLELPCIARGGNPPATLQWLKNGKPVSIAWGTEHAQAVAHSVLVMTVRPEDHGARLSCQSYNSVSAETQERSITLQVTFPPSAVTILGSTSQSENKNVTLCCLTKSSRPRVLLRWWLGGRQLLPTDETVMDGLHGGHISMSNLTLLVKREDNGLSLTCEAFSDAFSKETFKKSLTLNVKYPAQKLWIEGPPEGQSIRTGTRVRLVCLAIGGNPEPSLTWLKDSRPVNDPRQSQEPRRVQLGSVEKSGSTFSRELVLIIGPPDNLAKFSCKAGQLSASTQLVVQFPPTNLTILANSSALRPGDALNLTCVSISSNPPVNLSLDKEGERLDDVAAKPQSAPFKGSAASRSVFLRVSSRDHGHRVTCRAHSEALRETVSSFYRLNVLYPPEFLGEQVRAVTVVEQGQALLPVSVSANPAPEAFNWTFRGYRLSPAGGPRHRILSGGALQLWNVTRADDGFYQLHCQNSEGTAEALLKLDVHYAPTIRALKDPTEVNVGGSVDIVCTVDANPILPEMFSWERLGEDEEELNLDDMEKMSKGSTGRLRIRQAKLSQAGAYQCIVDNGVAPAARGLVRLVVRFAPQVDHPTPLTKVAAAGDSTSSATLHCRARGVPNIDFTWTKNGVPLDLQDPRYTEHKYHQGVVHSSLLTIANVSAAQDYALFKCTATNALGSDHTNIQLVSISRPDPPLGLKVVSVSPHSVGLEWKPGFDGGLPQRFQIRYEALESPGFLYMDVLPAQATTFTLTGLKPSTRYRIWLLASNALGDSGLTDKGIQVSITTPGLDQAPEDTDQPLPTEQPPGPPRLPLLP

[2] = target: T2, His-FLAG-NEPH1-full length (FL) (Mus musculus, UniProt Q80W68 48-789); test: as above; conditions: both partners purified
T2 sequence (looked up): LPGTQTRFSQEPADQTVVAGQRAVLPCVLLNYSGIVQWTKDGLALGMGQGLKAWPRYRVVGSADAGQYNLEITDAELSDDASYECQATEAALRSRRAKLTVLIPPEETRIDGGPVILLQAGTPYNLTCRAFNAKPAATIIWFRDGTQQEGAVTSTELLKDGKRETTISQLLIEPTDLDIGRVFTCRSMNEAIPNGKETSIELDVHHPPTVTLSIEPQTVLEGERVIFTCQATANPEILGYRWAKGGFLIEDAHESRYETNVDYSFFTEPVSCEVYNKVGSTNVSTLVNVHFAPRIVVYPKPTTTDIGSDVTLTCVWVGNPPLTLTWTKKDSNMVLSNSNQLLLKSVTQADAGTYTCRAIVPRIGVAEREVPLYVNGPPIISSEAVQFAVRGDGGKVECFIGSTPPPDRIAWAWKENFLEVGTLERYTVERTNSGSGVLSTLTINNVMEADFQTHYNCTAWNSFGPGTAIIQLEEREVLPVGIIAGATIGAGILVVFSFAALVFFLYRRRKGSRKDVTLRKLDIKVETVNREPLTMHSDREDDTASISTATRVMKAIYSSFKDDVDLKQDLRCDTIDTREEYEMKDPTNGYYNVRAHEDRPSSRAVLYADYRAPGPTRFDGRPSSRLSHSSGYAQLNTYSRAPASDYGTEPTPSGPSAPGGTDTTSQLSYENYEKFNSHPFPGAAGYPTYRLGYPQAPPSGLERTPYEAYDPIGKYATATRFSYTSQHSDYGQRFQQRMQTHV

Kd [1]: 2.4 nM
Kd [2]: 278 nM
B1: purified human recombinant HGF (ligand)
chain: not shown
notes: hepatocyte growth factor, human, recombinant, purified; also called hepatocyte growth factor; recombinant human active HGF; source: bought: Sigma

Reference: publication PMC8429977, “Phosphorylation of slit diaphragm proteins NEPHRIN and NEPH1 upon binding of HGF promotes podocyte repair” (The Journal of Biological Chemistry, 2021)
